Results as given in PubChem BioAssay AID1345082 (National Center for Advancing Translational Sciences (NCATS), 2018).
Values joined by “and” are separate entries in the source; they are usually repeats but may differ in a detail not shown here. Equal values may be shown once. Screen size: about 94,000 compounds; about 4,000 (4.3%) were called active. The shares of active, inactive and inconclusive entries below differ from those in the screen. Calls follow the shape of the dose curve; as a rule, active = well fitted inhibition curve with a large enough effect; inconclusive = small, poorly fitted or top-dose-only effect; inactive = no such curve, though single readings can be large or run the other way. A potency beside an inconclusive call is a rough fit, not a confirmed value.

Test: Cytotoxic Profiling in NIH 3T3 Cell Line of Diverse Libraries Using Quantitative High-Throughput Screening; also: nearly all actives have a fitted effect of over 55% in size
Details: NIH 3T3 viability, CellTiter-Glo ATP luminescence, 48-72 h; activity change, negative = cytotoxicity: at 96.7 µM (top of the series) unless noted; series mostly up to 96.7 µM
Procedure, shortened: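 Cytotoxicity is measured as loss of cellular ATP: NIH 3T3 cells (400/well) are exposed to compound for 48 or 72 hr at 37 °C, then CellTiter-Glo luminescence is imaged after 10 min at room temperature.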
% is scaled to controls: 0 for no effect and ±100 for the full control effect; potency is read from the fitted curve at half-maximal effect; tags tell the direction and shape of the fitted curve.

Compound	activity change, negative = cytotoxicity	Potency
O=C(CN1CCCCCC1)NCC1Cn2cccc2C(=O)N1Cc1ccccc1 (stereo unspecified)	inactive: 1.57%	–
O=C(c1ccc(Cl)cc1)N1CCCN(c2ccnc3ccnn23)CC1	–	inconclusive: 44.7 µM [inhibitor, partial curve, poor fit]
O=C(NCc1cccc(Cl)c1)c1cn2cc(-c3cccc(C(F)(F)F)c3)sc2n1	–	inconclusive: 79.4 µM [inhibitor, partial curve]
COCCN1CCNc2cc(-c3cc(Cl)ccc3OC)ncc2C1	–	inconclusive: 100 µM [inhibitor, single point]
CCOc1ccccc1C1NC(=O)N(CC(=O)Nc2ccc(F)cc2)C2=C1C(=O)OC2 (stereo unspecified)	–	inconclusive: 50.1 µM [inhibitor, partial curve, poor fit]
Cc1ccccc1CN1Cc2nc(OCc3cccnc3)ccc2OCC1=O	–	inconclusive: 100 µM [inhibitor, single point]
O=C(NCC1CCC(=O)N(Cc2ccccc2)CC1)C1CCCC1 (stereo unspecified)	inactive: -19.8%	–
CC(C)CN(CC1CN(C(=O)c2ccccc2)CCO1)C(=O)c1cccc2ccccc12 (stereo unspecified)	–	inconclusive: 50.1 µM [inhibitor, partial curve, poor fit]
COc1cc(-c2noc(-c3ncn4c3COC(c3ccc(F)cc3)C4)n2)cc(OC)c1OC (stereo unspecified)	–	inconclusive: 79.4 µM [inhibitor, single point]
CC(C)Cn1c(=O)c(C(=O)NCC2CC2)nc2cccnc21	–	inconclusive: 100 µM [inhibitor, partial curve]
CCC(=O)N(C1CCOCC1)C1CCN(S(=O)(=O)c2ccc(C)cc2C)CC1	–	inconclusive: 56.2 µM [inhibitor, partial curve, poor fit]
O=C1CN(C(=O)Cc2c[nH]c3ncc(-c4ccccc4)cc23)CCN1	–	inconclusive: 100 µM [inhibitor, partial curve, poor fit]
c1ccc(Cc2nnc([C@H]3CCN(C4CCCCC4)C3)o2)cc1	inactive: -23.1% [at 174 µM]	–
Cc1noc(C)c1[S+](=O)([O-])NC1CCN(c2nccc(Nc3ccccc3F)n2)CC1	–	inconclusive: 50.1 µM [inhibitor, partial curve, poor fit]
O=C(NCc1cccs1)C1CCc2sc(C(=O)N3CCCCCC3)cc2C1 (stereo unspecified)	–	inconclusive: 44.7 µM [inhibitor, partial curve, poor fit]
Cc1noc2c(NCCCn3ccnc3)cc(-c3ccccn3)nc12	–	active: 25.1 µM
COc1ccc(C(=O)NC2CCN(c3nccc(Nc4ccccc4Cl)n3)CC2)cc1	–	inconclusive: 70.8 µM [inhibitor, single point]
Cc1nn(-c2ccccc2)c2c1C(C(C)C)N(C1CN([S+](C)(=O)[O-])C1)C2=O (stereo unspecified)	inactive: -18.2%	–
COC(=O)[C@@H]1Cc2ncn(Cc3ccc(Cl)cc3)c2CN1C(=O)c1cccs1	–	inconclusive: 89.1 µM [inhibitor, partial curve]
COc1ccc(Cl)cc1C(=O)NC1CCN(c2cc(-c3cccs3)[nH]n2)C1 (stereo unspecified)	–	inconclusive: 35.5 µM [inhibitor, partial curve]
CC1=NOC2(CCN(Cc3ccc(C(F)(F)F)cc3)CC2)C1	–	inconclusive: 100 µM [inhibitor, partial curve]

Compound	activity change, negative = cytotoxicity	Potency
CCn1cc(S(=O)(=O)N2CC(N(Cc3cccnc3)CC(C)C)C2)cn1	inactive: -4.79%	–
O=C(NC1CCCCCC1)C1CCc2nnc(CN[S+](=O)([O-])c3ccccc3Cl)n21 (stereo unspecified)	inactive: -24.1%	–
C[S+](=O)([O-])N1Cc2ccccc2CC2(CCCN(Cc3cccnc3)C2)C1 (stereo unspecified)	inactive: -1.86%	–
CC[C@@]1(O)CCN(C(=O)c2sc(C)cc2OC)C[C@H]1O	inactive: -2.5%	–
Cc1ccc(C(=O)N2CCN(c3cc(-c4cccs4)[nH]n3)CC2)cc1C	–	inconclusive: 22.4 µM [inhibitor, partial curve]
COc1ccc(C2(C(=O)N3CCCCCC3c3nc(C4CC4)no3)CC2)cc1 (stereo unspecified)	–	inconclusive: 39.8 µM [inhibitor, partial curve, poor fit]
COc1ccccc1C(=O)NC1CCN(Cc2cccc(-c3ccccc3OC)c2)CC1	–	inconclusive: 44.7 µM [inhibitor, partial curve, poor fit]
Cc1ccc2oc(C(=O)N(C)Cc3cc(-c4ccccc4)no3)c(C)c2c1	inactive: -18.1%	–
CCn1nc(CC(C)C)cc1C(=O)NCCS(=O)(=O)c1ccc(F)cc1	inactive: -22%	–
Oc1ccc(-c2nc(C3CC3)nc3c2CN(Cc2ccccc2C(F)(F)F)CC3)cc1	–	inconclusive: 70.8 µM [inhibitor, single point] and inconclusive: 50.1 µM [inhibitor, partial curve, poor fit]
FC(F)(F)C1CN(c2ccc3cc(Cl)ccc3n2)CCO1 (stereo unspecified)	–	inconclusive: 44.7 µM [inhibitor, partial curve, poor fit]
Cc1cccc2c1nc1n2[C@@H](CNC2CCOCC2)COC1	inactive: -11.5% [at 138 µM]	–
COc1cccc(CN2CCOC3(CCN(Cc4ccc5[nH]ccc5c4)CC3)C2=O)c1	–	inconclusive: 100 µM [inhibitor, partial curve, poor fit]
CC(C)c1ccc(NC(=O)N[C@H]2CO[C@H]3[C@@H]2OC[C@H]3OC(=O)Nc2ccc(Oc3ccccc3)cc2)cc1	–	inconclusive: 44.7 µM [inhibitor, partial curve, poor fit]
CCc1ccccc1NC(=O)CC1CCN(c2ccnc(OC)n2)CC1	–	inconclusive: 20 µM [inhibitor, full curve]
CCOc1ccc(NC(=O)C2CCc3ncc(-c4ccsc4)n3C2)cc1 (stereo unspecified)	–	inconclusive: 44.7 µM [inhibitor, partial curve, poor fit]
O=C(NCc1cccc(Cl)c1)c1ccc2oc(-c3ccncc3)nc2c1	inactive: -28.5%	–
O=C(NCCCc1ccccc1)c1nc2sccn2c1-c1ccccc1	–	inconclusive: 39.8 µM [inhibitor, partial curve]
CNC(=O)c1cc(C2CC2)nc2onc(C3CCN(C(=O)c4cccc(Cl)c4)C3)c12 (stereo unspecified)	–	inconclusive: 39.8 µM [inhibitor, partial curve, poor fit]
COc1cccc(-c2cn3cc(C(=O)NCc4ccc(F)cc4)nc3s2)c1	–	inconclusive: 50.1 µM [inhibitor, partial curve, poor fit]
